# In the supplement of paper PMC8728848:
# The list shows a part of the results.
# B1: SSA (Sclerotinia sclerotiorum), A7XUK7 (protein)
# chain: MGFKGVGTYEIVPYQAPSLNLNAWEGKLEPGAVVRTYTRGDKPSDNAKWQVALVAGSGDSAEYLIINVHSGYFLTATKENHIVSTPQISPTDPSARWTIKPATTHQYEVFTINNKVSELGQLTVKDYSTHSGADVLSASAKTADNQKWYFDAK
# Tests used:
# Test in all cases: glycan array binding signal (z-score within array); higher = stronger binding
# Details in all cases: glycan notation: IUPAC condensed, linker removed
# Gal(b1-2)Gal = target: Gal(b1-2)Gal
# How it was run: (§1)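 The binding signal is a Z-score computed within each array and averaged over linkers. Arrays of the same protein sequence at different concentrations or buffers were also averaged together. Data originate from 3228 arrays in the Consortium for Functional Glycomics database, kept only where the protein sequence was available.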
# Gal(b1-3)Gal = target: Gal(b1-3)Gal
# How it was run: as §1
# Gal(b1-3)Gal(b1-4)GlcNAc = target: Gal(b1-3)Gal(b1-4)GlcNAc
# How it was run: as §1
# [1] = target: Gal(b1-3)Gal(b1-4)GlcNAc(b1-2)Man(a1-3)[Gal(b1-3)Gal(b1-4)GlcNAc(b1-2)Man(a1-6)]Man(b1-4)GlcNAc(b1-4)GlcNAc
# How it was run: as §1
# Gal(b1-3)GalNAc = target: Gal(b1-3)GalNAc
# How it was run: as §1
# [2] = target: Gal(b1-3)GalNAc(a1-3)[Fuc(a1-2)]Gal(b1-4)Glc
# How it was run: as §1
# [3] = target: Gal(b1-3)GalNAc(a1-3)[Fuc(a1-2)]Gal(b1-4)GlcNAc
# How it was run: as §1
# [4] = target: Gal(b1-3)GalNAc(b1-3)Gal(a1-4)Gal(b1-4)Glc
# How it was run: as §1
# [5] = target: Gal(b1-3)GalNAc(b1-4)Gal(b1-4)Glc
# How it was run: as §1
# [6] = target: Gal(b1-3)GalNAc(b1-4)[Neu5Ac(a2-3)]Gal(b1-4)Glc
# How it was run: as §1
# Gal(b1-3)GlcNAc = target: Gal(b1-3)GlcNAc
# How it was run: as §1
# [7] = target: Gal(b1-3)GlcNAc(b1-2)Man(a1-3)[Gal(b1-3)GlcNAc(b1-2)Man(a1-6)]Man(b1-4)GlcNAc(b1-4)GlcNAc
# How it was run: as §1
# [8] = target: Gal(b1-3)GlcNAc(b1-2)Man(a1-3)[Gal(b1-3)GlcNAc(b1-2)Man(a1-6)]Man(b1-4)GlcNAc(b1-4)[Fuc(a1-6)]GlcNAc
# How it was run: as §1
# [9] = target: Gal(b1-3)GlcNAc(b1-3)Gal(b1-3)GlcNAc
# How it was run: as §1
# [10] = target: Gal(b1-3)GlcNAc(b1-3)Gal(b1-4)Glc
# How it was run: as §1
# [11] = target: Gal(b1-3)GlcNAc(b1-3)Gal(b1-4)GlcNAc
# How it was run: as §1
# [12] = target: Gal(b1-3)[Fuc(a1-4)]GlcNAc
# How it was run: as §1
# [13] = target: Gal(b1-3)[Fuc(a1-4)]GlcNAc(b1-2)Man(a1-3)[Gal(b1-3)[Fuc(a1-4)]GlcNAc(b1-2)Man(a1-6)]Man(b1-4)GlcNAc(b1-4)GlcNAc
# How it was run: as §1
# [14] = target: Gal(b1-3)[Fuc(a1-4)]GlcNAc(b1-2)Man(a1-3)[Gal(b1-3)[Fuc(a1-4)]GlcNAc(b1-2)Man(a1-6)]Man(b1-4)GlcNAc(b1-4)[Fuc(a1-6)]GlcNAc
# How it was run: as §1
# [15] = target: Gal(b1-3)[Fuc(a1-4)]GlcNAc(b1-3)Gal(b1-3)[Fuc(a1-4)]GlcNAc
# How it was run: as §1
# [16] = target: Gal(b1-3)[Fuc(a1-4)]GlcNAc(b1-3)Gal(b1-4)GlcNAc
# How it was run: as §1
# [17] = target: Gal(b1-3)[Fuc(a1-4)]GlcNAc(b1-3)Gal(b1-4)[Fuc(a1-3)]GlcNAc
# How it was run: as §1
# [18] = target: Gal(b1-3)[GlcNAc(b1-6)]GalNAc
# How it was run: as §1
# [19] = target: Gal(b1-3)[Neu5Ac(a2-6)]GalNAc
# How it was run: as §1
# [20] = target: Gal(b1-3)[Neu5Ac(a2-6)]GlcNAc(b1-6)Gal(b1-4)Glc
# How it was run: as §1
# [21] = target: Gal(b1-3)[Neu5Ac(b2-6)]GalNAc
# How it was run: as §1
# [22] = target: Gal(b1-4)GalNAc(a1-3)[Fuc(a1-2)]Gal(b1-4)GlcNAc
# How it was run: as §1
# [23] = target: Gal(b1-4)GalNAc(b1-3)[Fuc(a1-2)]Gal(b1-4)GlcNAc
# How it was run: as §1
# Gal(b1-4)Glc = target: Gal(b1-4)Glc
# How it was run: as §1
# Gal(b1-4)Glc6S = target: Gal(b1-4)Glc6S
# How it was run: as §1
# Gal(b1-4)GlcNAc = target: Gal(b1-4)GlcNAc
# How it was run: as §1
# [24] = target: Gal(b1-4)GlcNAc(a1-6)Gal(b1-4)GlcNAc
# How it was run: as §1
# [25] = target: Gal(b1-4)GlcNAc(b1-2)Man(a1-3)Man(b1-4)GlcNAc(b1-4)GlcNAc
# How it was run: as §1
# [26] = target: Gal(b1-4)GlcNAc(b1-2)Man(a1-3)[Gal(b1-4)GlcNAc(b1-2)Man(a1-6)]Man(b1-4)GlcNAc(b1-4)GlcNAc
# How it was run: as §1
# [27] = target: Gal(b1-4)GlcNAc(b1-2)Man(a1-3)[Gal(b1-4)GlcNAc(b1-2)Man(a1-6)]Man(b1-4)GlcNAc(b1-4)[Fuc(a1-6)]GlcNAc
# How it was run: as §1
# [28] = target: Gal(b1-4)GlcNAc(b1-2)Man(a1-3)[Man(a1-6)]Man(b1-4)GlcNAc(b1-4)GlcNAc
# How it was run: as §1
# [29] = target: Gal(b1-4)GlcNAc(b1-2)Man(a1-6)Man(b1-4)GlcNAc(b1-4)GlcNAc
# How it was run: as §1
binder,measurement,setting,value
B1,glycan array binding signal (z-score),Gal(b1-2)Gal,-0.288
same,glycan array binding signal (z-score),Gal(b1-3)Gal,0.018
same,glycan array binding signal (z-score),Gal(b1-3)Gal(b1-4)GlcNAc,-0.193
same,glycan array binding signal (z-score),[1],0.038
same,glycan array binding signal (z-score),Gal(b1-3)GalNAc,0.014
same,glycan array binding signal (z-score),[2],-0.365
same,glycan array binding signal (z-score),[3],-0.194
same,glycan array binding signal (z-score),[4],0.772
same,glycan array binding signal (z-score),[5],0.6
same,glycan array binding signal (z-score),[6],0.293
same,glycan array binding signal (z-score),Gal(b1-3)GlcNAc,-0.364
same,glycan array binding signal (z-score),[7],1.44
same,glycan array binding signal (z-score),[8],0.103
same,glycan array binding signal (z-score),[9],-0.23
same,glycan array binding signal (z-score),[10],-0.28
same,glycan array binding signal (z-score),[11],-0.249
same,glycan array binding signal (z-score),[12],-0.377
same,glycan array binding signal (z-score),[13],-0.041
same,glycan array binding signal (z-score),[14],-0.135
same,glycan array binding signal (z-score),[15],-0.223
same,glycan array binding signal (z-score),[16],-0.381
same,glycan array binding signal (z-score),[17],-0.368
same,glycan array binding signal (z-score),[18],-0.1
same,glycan array binding signal (z-score),[19],-0.063
same,glycan array binding signal (z-score),[20],-0.29
same,glycan array binding signal (z-score),[21],0.236
same,glycan array binding signal (z-score),[22],-0.376
same,glycan array binding signal (z-score),[23],-0.339
same,glycan array binding signal (z-score),Gal(b1-4)Glc,-0.315
same,glycan array binding signal (z-score),Gal(b1-4)Glc6S,-0.087
same,glycan array binding signal (z-score),Gal(b1-4)GlcNAc,-0.288
same,glycan array binding signal (z-score),[24],-0.414
same,glycan array binding signal (z-score),[25],-0.298
same,glycan array binding signal (z-score),[26],1.41
same,glycan array binding signal (z-score),[27],-0.288
same,glycan array binding signal (z-score),[28],2.12
same,glycan array binding signal (z-score),[29],-0.245
